# Over roughly 81,000 sequences, “one-hybrid fitness for binding parS DNA” has its median near -0.17; the highest 2% begin near 0.51. This is one part of the list.
# B1: Caulobacter ParB omega fusion; a variant is named by its letters at X, in order, B8GW30 (parent)
# chain: MESVVVGEPGMSEGRRGLGRGLSALLGEVDAAPAQAPGEQLGGSREAPIEILQRNPDQPRRTFREEDLEDLSNSIREKGVLQPILVRPSPDTAGEYQIVAGERAWRAAQRAGLKTVPIMVRELDDLAVLEIGIIENVQRADLNVLEEALSYKVLMEKFERTQENIAQTIGKSXSHVANXMRLLXLPDEVQSYLVSGELTAXHARAIAAAADPVALAKQIIEGGLSVRETEALARKAPNLSAGKSKGGRPPRVKDTDTQALESDLSSVLGLDVSIDHRGSTGTLTITYATLEQLDDLCNRLTRGI
# Variants of: B1
# Experiment: one-hybrid fitness for binding parS DNA (scaled: cognate 1, non-cognate 0); higher = stronger binding
# Settings: with parS DNA site
# In short: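 In E. coli USO, a HIS3 reporter with its site placed 19 bp from the promoter was used to select Caulobacter ParB variants randomised at four specificity codons. Growth lasted 48 hours at 37°C on histidine-free M9 containing 0.1 mM IPTG and 5 mM 3-AT. Fitness was taken as the log change in variant-to-wild-type read ratio from Illumina sequencing of pre- and post-selection plasmids, rescaled between the non-cognate and cognate sites.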
row,Variant,one-hybrid fitness for binding parS DNA
1,RKGT,0.764
2,KMDE,≤ 0.2
3,WYKR,≤ 0.2
4,RFHQ,≤ 0.2
5,AKTN,≤ 0.2
6,KHFS,≤ 0.2
7,RDGR,≤ 0.2
8,SYAW,≤ 0.2
9,AYYG,≤ 0.2
10,QKPC,≤ 0.2
11,AQDI,≤ 0.2
12,YSMM,≤ 0.2
13,GKHC,≤ 0.2
14,QDSE,≤ 0.2
15,RMFN,0.459
16,VMFG,≤ 0.2
17,KFKG,≤ 0.2
18,QGDY,≤ 0.2
19,RHDW,≤ 0.2
20,SLPY,≤ 0.2
21,EAAE,≤ 0.2
22,YHPR,≤ 0.2
23,ITFA,≤ 0.2
24,NQDR,≤ 0.2
25,GDTC,≤ 0.2
26,QCHF,≤ 0.2

row,Variant,one-hybrid fitness for binding parS DNA
1,TPVE,≤ 0.2
2,PSLI,≤ 0.2
3,EPML,≤ 0.2
4,QGLG,≤ 0.2
5,YVLR,≤ 0.2
6,IKDF,≤ 0.2
7,LDKL,≤ 0.2
8,LIVY,≤ 0.2
9,DMPL,≤ 0.2
10,QQVA,≤ 0.2
11,YSVC,≤ 0.2
12,GCIG,≤ 0.2
13,QRRR,≤ 0.2
14,THKE,≤ 0.2
15,PHPK,≤ 0.2
16,WDDF,≤ 0.2
17,FNRG,≤ 0.2
18,IFYG,≤ 0.2
19,PLHR,≤ 0.2
20,RPGK,≤ 0.2
21,GRDI,≤ 0.2
22,PACT,≤ 0.2
23,WTHV,≤ 0.2
24,TFWR,≤ 0.2
25,FYHR,≤ 0.2
26,HVIR,≤ 0.2

row,Variant,one-hybrid fitness for binding parS DNA
1,YYLV,≤ 0.2
2,RIYI,≤ 0.2
3,DYAK,≤ 0.2
4,ETPI,≤ 0.2
5,NWMR,≤ 0.2
6,FLGS,≤ 0.2
7,PFAW,≤ 0.2
8,SPKY,≤ 0.2
9,MFID,≤ 0.2
10,WVNN,≤ 0.2
11,RWTF,≤ 0.2
12,WSCM,≤ 0.2
13,VVIT,≤ 0.2
14,NSDE,≤ 0.2
15,GFKC,≤ 0.2
16,HLTY,≤ 0.2
17,TKLA,≤ 0.2
18,FSYA,≤ 0.2
19,QQST,≤ 0.2
20,VVYG,≤ 0.2
21,YAYA,0.429
22,FKHS,≤ 0.2
23,LSAF,≤ 0.2
24,DISC,≤ 0.2
25,YLLS,≤ 0.2

# Reference: a collection of fitness landscapes (doi:10.1016/j.celrep.2020.107928)
